In US6544989B2, “Benzazoles: benzoxazole, benzthiazole and benzimidazole derivatives” (Syngenta Limited, priority 1998, dated 2003):

Legend:
Details in all cases: 500 ppm by weight; mortality assessed usually between three and five days after treatment
Heliothis virescens = system: Heliothis virescens
Description: (§1) The test procedure adopted with regard to each pest, except nematodes, was essentially the same and composed supporting a number of the pests on a medium which was usually a substrate, a host plant or a foodstuff on which the pests feed, and treating either or both the medium and the pests with a composition. Pest mortality was assessed usually between three and five days after treatment Knockdown of housefly (Musca domestica) was assessed 15 minutes after treatment

Tetranychus urticae = system: Tetranychus urticae
Description: as §1

Myzus persicae = experiment: Pesticidal test, Myzus persicae mortality
Description: as §1

Musca domestica = system: Musca domestica
Description: as §1

Row | Structure (SMILES) | HELIVI = Heliothis virescens, grading of mortality (score) (Heliothis virescens) | TETRUR = Tetranychus urticae, grading of mortality (score) (Tetranychus urticae) | MYZUPE = Myzus persicae, grading of mortality (score) (Myzus persicae) | MUSCDO AK = Musca domestica (kill), grading of mortality (score) (Musca domestica)
1 | Cc1nsc(NC(=O)Cc2ccc3oc(C(C)Cl)nc3c2)c1Cl (racemic) [93(A3)] | 0 (0 indicates less than 40% mortality) | 0 (0 indicates less than 40% mortality) | 0 (0 indicates less than 40% mortality) | 
2 | CCC(Cl)c1nc2cc(CC(=O)Nc3snc(C)c3Cl)ccc2o1 (racemic) [95(A3)] | 0 (0 indicates less than 40% mortality) | 0 (0 indicates less than 40% mortality) | 9 (9 indicates 80-100% mortality) | 
3 | Cc1nsc(NC(=O)Cc2ccc3oc(C(C)C#N)nc3c2)c1Cl (racemic) [115(A3)] | 0 (0 indicates less than 40% mortality) | 0 (0 indicates less than 40% mortality) | 5 (5 indicates 40-79% mortality) | 
4 | Cc1nc2cc(CC(=O)Nc3snc(C)c3Br)ccc2o1 [2(A4)] | 0 (0 indicates less than 40% mortality) | 0 (0 indicates less than 40% mortality) | 5 (5 indicates 40-79% mortality) | 5 (5 indicates 40-79% mortality)
5 | Cc1nc2cc(CC(=O)Nc3snc(C)c3C#N)ccc2o1 [2(A5)] | 0 (0 indicates less than 40% mortality) | 0 (0 indicates less than 40% mortality) | 5 (5 indicates 40-79% mortality) | 
6 | CCc1nsc(NC(=O)Cc2ccc3oc(C)nc3c2)c1Cl [2(A8)] | 0 (0 indicates less than 40% mortality) | 0 (0 indicates less than 40% mortality) | 5 (5 indicates 40-79% mortality) | 
7 | CCCc1nc2cc(CC(=O)Nc3snc(C)c3Cl)ccc2s1 [4(A13)] | 0 (0 indicates less than 40% mortality) | 9 (9 indicates 80-100% mortality) | 9 (9 indicates 80-100% mortality) | 9 (9 indicates 80-100% mortality)
8 | CCCC(C)c1nc2cc(CC(=O)Nc3snc(C)c3Cl)ccc2o1 (centres unmarked) [12(A3)] | 0 (0 indicates less than 40% mortality) | 5 (5 indicates 40-79% mortality) | 5 (5 indicates 40-79% mortality) | 
9 | Cc1nsc(NC(=O)Cc2ccc3oc(CC(C)(C)C)nc3c2)c1C#N [15(A5)] | 0 (0 indicates less than 40% mortality) | 5 (5 indicates 40-79% mortality) | 0 (0 indicates less than 40% mortality) | 
10 | CCc1nsc(NC(=O)Cc2ccc3oc(CC(C)(C)C)nc3c2)c1Cl [15(A8)] | 5 (5 indicates 40-79% mortality) | 9 (9 indicates 80-100% mortality) | 9 (9 indicates 80-100% mortality) | 
11 | Cc1nsc(N(CC(F)(F)F)C(=O)Cc2ccc3oc(CC(C)(C)C)nc3c2)c1Cl [15(H3)] | 0 (0 indicates less than 40% mortality) | 0 (0 indicates less than 40% mortality) | 9 (9 indicates 80-100% mortality) | 
12 | Cc1nsc(NC(=O)Cc2ccc3oc(C4CC4)nc3c2)c1Cl [21(A3)] | 0 (0 indicates less than 40% mortality) | 0 (0 indicates less than 40% mortality) | 5 (5 indicates 40-79% mortality) | 
13 | Cc1nsc(NC(=O)Cc2ccc3oc(C4(C)CCCCC4)nc3c2)c1Cl [36(A3)] | 0 (0 indicates less than 40% mortality) | 9 (9 indicates 80-100% mortality) | 5 (5 indicates 40-79% mortality) | 
14 | Cc1nsc(NC(=O)Cc2ccc3oc(CC4CCCC4)nc3c2)c1Cl [42(A3)] | 0 (0 indicates less than 40% mortality) | 9 (9 indicates 80-100% mortality) | 5 (5 indicates 40-79% mortality) | 
15 | Cc1nsc(NC(=O)Cc2ccc3oc(C(F)(F)F)nc3c2)c1Cl [75(A3)] | 0 (0 indicates less than 40% mortality) | 0 (0 indicates less than 40% mortality) | 9 (9 indicates 80-100% mortality) | 
16 | Cc1nsc(NC(=O)Cc2ccc3oc(C(F)(F)C(F)F)nc3c2)c1Cl [79(A3)] | 5 (5 indicates 40-79% mortality) | 0 (0 indicates less than 40% mortality) | 0 (0 indicates less than 40% mortality) | 

Row | Structure (SMILES) | HELIVI = Heliothis virescens, grading of mortality (score) (Heliothis virescens) | TETRUR = Tetranychus urticae, grading of mortality (score) (Tetranychus urticae) | MYZUPE = Myzus persicae, grading of mortality (score) (Myzus persicae) | MUSCDO AK = Musca domestica (kill), grading of mortality (score) (Musca domestica)
17 | Cc1nsc(NC(=O)Cc2ccc3oc(C(F)(F)C(F)(F)Cl)nc3c2)c1Cl [86(A3)] | 0 (0 indicates less than 40% mortality) | 5 (5 indicates 40-79% mortality) | 5 (5 indicates 40-79% mortality) | 
18 | COCc1nc2cc(CC(=O)Nc3snc(C)c3Cl)ccc2o1 [130(A3)] | 0 (0 indicates less than 40% mortality) | 5 (5 indicates 40-79% mortality) | 9 (9 indicates 80-100% mortality) | 
19 | Cc1nsc(NC(=O)Cc2ccc3oc(CSc4ccccc4)nc3c2)c1Cl [173(A3)] | 0 (0 indicates less than 40% mortality) | 0 (0 indicates less than 40% mortality) | 0 (0 indicates less than 40% mortality) | 
20 | Cc1nsc(NC(=O)Cc2ccc3oc(Cc4c(F)c(F)c(F)c(F)c4F)nc3c2)c1Cl [239(A3)] | 0 (0 indicates less than 40% mortality) | 0 (0 indicates less than 40% mortality) | 9 (9 indicates 80-100% mortality) | 
21 | Cc1nsc(NC(=O)Cc2ccc3oc(-c4c(Cl)cc(C(F)(F)F)cc4Cl)nc3c2)c1Cl [244(A3)] | 0 (0 indicates less than 40% mortality) | 0 (0 indicates less than 40% mortality) | 0 (0 indicates less than 40% mortality) | 
22 | Cc1nsc(NC(=O)Cc2ccc3oc(C(c4ccccc4)c4ccccc4)nc3c2)c1Cl [246(A3)] | 0 (0 indicates less than 40% mortality) | 0 (0 indicates less than 40% mortality) | 0 (0 indicates less than 40% mortality) | 
23 | Cc1nsc(NC(=O)Cc2ccc3oc(-c4ccccc4Cl)nc3c2)c1Cl [253(A3)] | 0 (0 indicates less than 40% mortality) | 0 (0 indicates less than 40% mortality) | 5 (5 indicates 40-79% mortality) | 
24 | Cc1nsc(NC(=O)Cc2ccc3oc(-c4ccc([N+](=O)[O-])cc4Cl)nc3c2)c1Cl [267(A3)] | 0 (0 indicates less than 40% mortality) | 0 (0 indicates less than 40% mortality) | 5 (5 indicates 40-79% mortality) | 
25 | Cc1nsc(NC(=O)Cc2ccc3oc(-c4ccccc4F)nc3c2)c1Cl [272(A3)] | 0 (0 indicates less than 40% mortality) | 0 (0 indicates less than 40% mortality) | 0 (0 indicates less than 40% mortality) | 
26 | Cc1nsc(NC(=O)Cc2ccc3oc(-c4c(F)c(F)c(F)c(F)c4F)nc3c2)c1Cl [287(A3)] | 0 (0 indicates less than 40% mortality) | 0 (0 indicates less than 40% mortality) | 0 (0 indicates less than 40% mortality) | 
27 | COc1ccccc1-c1nc2cc(CC(=O)Nc3snc(C)c3Cl)ccc2o1 [305(A3)] | 0 (0 indicates less than 40% mortality) | 0 (0 indicates less than 40% mortality) | 0 (0 indicates less than 40% mortality) | 
28 | Cc1nsc(NC(=O)Cc2ccc3oc(-c4cccs4)nc3c2)c1Cl [330(A3)] | 0 (0 indicates less than 40% mortality) | 0 (0 indicates less than 40% mortality) | 0 (0 indicates less than 40% mortality) | 
29 | Cc1nsc(NC(=O)Cc2ccc3oc(Cc4cccs4)nc3c2)c1Cl [334(A3)] | 0 (0 indicates less than 40% mortality) | 0 (0 indicates less than 40% mortality) | 0 (0 indicates less than 40% mortality) | 
30 | Cc1nsc(NC(=O)Cc2ccc3oc(-c4cccnc4Cl)nc3c2)c1Cl [343(A3)] | 0 (0 indicates less than 40% mortality) | 0 (0 indicates less than 40% mortality) | 5 (5 indicates 40-79% mortality) | 
31 | Cc1nsc(NC(=O)Cc2ccc3oc(-c4ccno4)nc3c2)c1Cl [349(A3)] | 0 (0 indicates less than 40% mortality) | 0 (0 indicates less than 40% mortality) | 0 (0 indicates less than 40% mortality) | 
